Test results as given in PubChem BioAssay AID1030 (National Center for Advancing Translational Sciences (NCATS), 2008).
The campaign covered roughly 220,000 compounds. About 16,000 (7.3%) were called active. Inconclusive results, whose numbers are uncertain, are shown with a selection of clear calls. The call rests on the fitted dose curve; in most records, active means well fitted inhibition curve with a large enough effect (not every such curve was filed as active); inconclusive means small, poorly fitted or top-dose-only effect, or another doubt; inactive means no such curve, though single readings can be large or run the other way. No potency is given beside an inconclusive call; the fits are too rough.

Target: Aldehyde dehydrogenase 1A1 (Homo sapiens) (UniProt P00352)
Experiment: qHTS Assay for Inhibitors of Aldehyde Dehydrogenase 1 (ALDH1A1);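 on activity, negative = inhibition: plate controls were no enzyme wells and a reference inhibitor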
Conditions: Purified ALDH1A1, NADH fluorescence, propionaldehyde substrate; series mostly up to 75.3 µM; activity, negative = inhibition: at the top concentration
Potency means the concentration at half of the fitted maximal effect; tags describe the fitted curve by direction and shape.

Chain of UniProt P00352 (P00352 whole entry, looked up): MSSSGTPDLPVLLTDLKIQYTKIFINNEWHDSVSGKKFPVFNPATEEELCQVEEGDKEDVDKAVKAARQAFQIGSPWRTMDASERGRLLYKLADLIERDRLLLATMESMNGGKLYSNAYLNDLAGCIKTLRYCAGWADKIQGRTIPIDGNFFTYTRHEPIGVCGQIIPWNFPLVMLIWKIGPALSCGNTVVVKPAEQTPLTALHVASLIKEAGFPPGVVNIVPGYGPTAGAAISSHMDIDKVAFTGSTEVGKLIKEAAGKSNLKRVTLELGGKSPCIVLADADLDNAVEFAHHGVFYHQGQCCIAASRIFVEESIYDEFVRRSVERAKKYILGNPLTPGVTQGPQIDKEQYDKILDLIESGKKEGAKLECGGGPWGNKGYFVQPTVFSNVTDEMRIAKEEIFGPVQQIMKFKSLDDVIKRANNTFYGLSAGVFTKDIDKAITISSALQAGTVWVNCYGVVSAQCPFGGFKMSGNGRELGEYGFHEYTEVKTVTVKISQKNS

SMILES	Potency	activity, negative = inhibition
Cc1nn2c(N3CCOCC3)c3c(nc2c1-c1ccccc1)CCCC3	inconclusive [inhibitor, single point]	–
Cc1onc(NC(=O)c2ccc(Cl)cc2Cl)c1Br	inconclusive [inhibitor, partial curve]	–
CCOC(=O)CNC(=S)N(Cc1ccccc1)Cc1cccnc1	inconclusive [inhibitor, single point]	–
Cn1c(C(=O)NCCN2CCc3ccccc3C2)cc2c(=O)n(C)c3ccccc3c21	inconclusive [inhibitor, partial curve]	–
c1ccc(CN2COc3c(ccc4c5c(ccc34)CN(Cc3ccccc3)CO5)C2)cc1	–	inactive: -4.92% [at 13.5 µM]
COc1ccc(Nc2ncnc3c2cnn3Cc2ccccc2)cc1OC	active: 8.91 µM	–
COc1ccccc1N1CCN(C(CNS(=O)(=O)c2ccc(C)cc2)c2cccnc2)CC1 (centres undefined)	inconclusive [inhibitor, single point]	–
COC(=O)c1cnc(Oc2ccc(NC(=O)NC(=O)c3c(F)cccc3Cl)cc2)cc1C(F)(F)F	inconclusive [inhibitor, single point]	–
Cc1cccc2sc(NC(=O)C3CCN(S(=O)(=O)c4cc([N+](=O)[O-])ccc4Cl)CC3)nc12	active: 7.08 µM	–
O=C(CSc1ncccn1)Nc1cc(Cl)ccc1[N+](=O)[O-]	inconclusive [inhibitor, single point]	–
CCOc1ccccc1NC(=S)N(CCN(C)C)C(C)c1ccncc1 (centres undefined)	–	inactive: -15.4%
O=C(CSC1=NCCS1)Nc1ccc(S(=O)(=O)NC2CCCCC2)cc1	inconclusive [inhibitor, single point]	–
CCOC(=O)c1c(NC(=O)CN2CCCCC2)sc2c1CCN(C(=O)OCC)C2	inconclusive [inhibitor, single point]	–
COc1ccc(NC(=S)Nc2cc(C)ccn2)c(OC)c1	–	inactive: 3.66%
COC(=O)CSc1nc2sc3c(c2c(=O)n1-c1ccccc1)CCN(C)C3	inconclusive [inhibitor, partial curve]	–
CCOC(=O)c1c(-c2ccc(C)o2)csc1NC(=O)CN1CCC(C(N)=O)CC1	active: 25.1 µM	–
CCCn1cc2c(c1-c1ccc(C)cc1)c(=O)n(C)c(=O)n2C	inconclusive [inhibitor, single point]	–
Cc1ccsc1-c1nc(-c2ccccc2)c(-c2ccccc2)[nH]1	inconclusive [inhibitor, single point]	–
O=C(O)CCCN1C(=O)/C(=C/c2cn(-c3ccccc3)nc2-c2cccs2)SC1=S	–	inactive: -9.94%
O=C(CNCc1ccncc1)Nc1cc(S(=O)(=O)N2CCCCC2)ccc1Cl	inconclusive [inhibitor, single point]	–
COCCCNc1nc2c(-c3cccc(C)c3)nnn2c2ccccc12	inconclusive [inhibitor, partial curve]	–
Cc1ccc(C)n1-c1ccc(-c2nnc3n2CCCCC3)s1	inconclusive [inhibitor, single point]	–
Cc1c(Cl)cnc(NC(=O)COC(=O)C(NC(=O)c2ccco2)C(C)C)c1Cl (centres undefined)	active: 11.2 µM	–
COc1ccc(C)cc1S(=O)(=O)N(C)CC(=O)N1CCCCCC1	inconclusive [inhibitor, partial curve]	–
O=[N+]([O-])c1ccc(O)c(C=Nc2ccc3nc(-c4ccccc4)[nH]c3c2)c1	inconclusive [inhibitor, partial curve]	–

SMILES	Potency	activity, negative = inhibition
CC(/C=N/n1cnnc1)=C\c1ccco1	inconclusive [inhibitor, single point]	–
CN(CC(=O)NCc1ccncc1)S(=O)(=O)c1ccc(Cl)cc1	–	inactive: 12.4%
CCCCC[C@H](O)/C=C/[C@@H]1[C@@H](C/C=C\CCCC(=O)OC)[C@@H](O)C[C@H]1O	inconclusive [inhibitor, single point]	–
COCCCNC(=S)N/N=C/c1ccc(O)cc1	–	inactive: 0.0728%
c1csc(Cc2nn3c(-c4ccncc4)nnc3s2)c1	inconclusive [inhibitor, single point]	–
Cc1nc(N2CCC(C)CC2)c2c(C)c(C(=O)Nc3cc(F)ccc3C)sc2n1	inconclusive [inhibitor, single point]	–
Cc1ccc(-c2nsc(SCC(=O)NCc3ccc4c(c3)OCO4)n2)cc1	–	inactive: 10.5%
CCN(CC)C(=O)c1c(-c2ccccc2)oc2ccc(OC)cc12	inconclusive [inhibitor, partial curve]	–
Cc1ccc(S(=O)(=O)c2cnc(-c3ccccc3)nc2Oc2ccccc2)cc1	inconclusive [inhibitor, partial curve]	–
CCN(CC)C(=O)CSc1ccc(C(F)(F)F)cc1[N+](=O)[O-]	–	inactive: 5.27%
O=C1C2C(c3ccccc3)C=CC(c3ccccc3)C2C(=O)N1C1CCCCC1 (centres undefined)	–	inactive: 4.6%
O=C(C1Cc2ccccc2CN1S(=O)(=O)c1ccc(F)cc1)N1CCCCCC1 (centres undefined)	inconclusive [inhibitor, partial curve]	–
O=C(CSc1nnc(Cn2c(=O)sc3ccccc32)n1-c1ccccc1)N1CCOCC1	–	inactive: -2.47%
CNc1ccc(SC#N)cc1	active: 8.91 µM	–
N#Cc1c(-c2cccs2)cc(-c2cccnc2)nc1N	inconclusive [inhibitor, partial curve]	–
CC(/C=C/c1ccco1)=N\NC(=O)CNc1ccc2ccccc2c1	active: 7.94 µM	–
Cc1ccccc1NC(=O)N1CCN(S(=O)(=O)c2ccccc2)CC1	–	inactive: -3.02%
COc1ccc(-n2c(=O)c3ccccc3n(CC(=O)Nc3cc(C)on3)c2=O)cc1OC	–	inactive: 2.53%
Cc1ccsc1/C=N/n1c(-c2ccccn2)n[nH]c1=S	inconclusive [inhibitor, single point]	–
COc1ccc(NC(=S)NC2CCCCC2)c(OC)c1	–	inactive: -0.248%
COc1cccc2cc(C(C)N(CCCN3CCOCC3)C(=O)Nc3ccc(Cl)cc3)oc12 (centres undefined)	inconclusive [inhibitor, partial curve]	–
CCOC(=O)N1CCN(C(=O)c2ccccc2CCc2ccccc2)CC1	active: 6.31 µM	–
Cc1nc(Nc2ccncc2)c2oc3ccccc3c2n1	inconclusive [inhibitor, single point]	–
Cc1occc1C(=O)Nc1ccc2c(c1)OCO2	–	inactive: -5.39%
NC(=S)N/N=C/c1coc2cc(Cl)ccc2c1=O	inconclusive [inhibitor, partial curve]	–

SMILES	Potency	activity, negative = inhibition
Cc1c(CNC2CCCC2)c(C(=O)O)c(C)n1Cc1ccccc1	–	inactive: 4.98%
COC1C(O)COC1/C=C/c1ccccc1 (centres undefined)	–	inactive: -1.28% [at 13.5 µM]
COc1cc(/C=C2\OC(=O)c3c(OC)cccc32)ccc1O	inconclusive [inhibitor, partial curve]	–
COC(=O)c1ccccc1NC(=O)NCc1c(C)nn(C)c1C	inconclusive [inhibitor, partial curve]	–
CNC(=S)NNC(=O)c1cccc(C(F)(F)F)c1	–	inactive: 0.174%
CCOC(=O)C1CCN(CCC(=O)Nc2cccc(C)c2)CC1	inconclusive [inhibitor, single point]	–
O=[N+]([O-])c1ccc(OCc2nnc(-c3ccccc3)o2)cc1	–	inactive: 6.54%
NC(CO)(CO)COCc1ccccc1	–	inactive: 6.74%
CC1CCc2sc(NC(=S)NC(=O)c3ccccc3)c(C#N)c2C1 (centres undefined)	active: 10 µM	–
O=C(CC(c1ccccc1)c1ccco1)N1CCCCC1 (centres undefined)	–	inactive: -5.22%
CCCCCCSc1nnc(-c2cnn(-c3ccccc3)c2-n2cccc2)n1C	active: 7.08 µM	–
C/C(=N/NC(=O)c1cc(Cl)ccc1O)C12CC3CC(CC(C3)C1)C2	inconclusive [inhibitor, single point]	–
CC(C)CC1NC(=O)N(CC(=O)Nc2ccccc2-c2ccccc2)C1=O (centres undefined)	inconclusive [inhibitor, single point]	–
O=C(OCC(=O)N1CCN(C(=O)c2ccco2)CC1)c1sc2cc(F)ccc2c1Cl	active: 28.2 µM	–
CCCC[C@@H](C=O)NC(=O)[C@H](CC(C)C)NC(=O)[C@H](CC(C)C)NC(C)=O	inactive	–
O=C(CSc1nc(-c2ccccc2)c(-c2ccccc2)[nH]1)N1CCN(S(=O)(=O)c2ccccc2)CC1	inconclusive [inhibitor, partial curve]	–
Cc1ccc(SCc2cc(=O)[nH]c(Nc3nc(C)c4ccccc4n3)n2)cc1	inconclusive [inhibitor, full curve, poor fit]	–
CCSc1nnc(NC(=O)CSc2nnc(C)c(=O)n2N)s1	inconclusive [inhibitor, single point]	–
Cc1ccc(N/C(=N/S(=O)(=O)c2cccs2)c2ccccc2)c(C)c1	–	inactive: 4.46%
CC/C(=N\Nc1ccc([N+](=O)[O-])cc1)c1ccccc1	inconclusive [inhibitor, single point]	–
O=C(O)c1ccccc1C(=O)c1ccc2c(c1)N(Cc1ccc(Cl)c(Cl)c1)C(=O)CO2	–	inactive: 6.16%
COc1cc(OC)c2c(=O)c(-c3ccc4c(c3)OCO4)coc2c1	inconclusive [inhibitor, single point]	–
COc1ccc(NC(=S)NNC(=O)OC(C)(C)C)cc1OC	inconclusive [inhibitor, partial curve]	–
Cc1cc(-c2ccccc2)nc(SC(C(=O)O)c2ccccc2)n1 (centres undefined)	inconclusive [inhibitor, single point]	–
